Source: ChEMBL document CHEMBL4888484, “Replenishing the malaria drug discovery pipeline: Screening and hit evaluation of the MMV Hit Generation Library 1 (HGL1) against asexual blood stage Plasmodium falciparum ,using a nano luciferase reporter read-out” (2022)
Out of some 150,000 compounds screened, about 540 (0.36%) showed an effect of 50% or more. The list shows a part of the results.

What follows are compounds tested on Plasmodium falciparum (assay: Primary screen in NF54 nanoGlo assay, in single point, at 2uM, 72h; a lower Z score goes with more inhibition). Conditions: timepoint 72 hour.
Format: functional, Erythrocyte

SMILES | % Inhibition [%] | Z score
Cc1oc(-c2ccccc2)nc1CN1C(=O)c2ccccc2C(C)(C)C1=O | 7 | -1.01
Cn1nc(CN(C(=O)NCc2ccc(Cl)cc2)C2CCCC2)c2c1CCC2 | 0 | 0.03
CCOC(=O)C(C)(C)c1csc(Cc2csc(C)n2)n1 | -15 | 2.03
N#Cc1ncn(Cc2nc(-c3cc(F)c(F)c(F)c3)no2)c1C#N | -3 | 0.26
CN1CCC2(CC1)CCN2C(=O)NCc1ccnc(OC(F)F)c1 | -14 | 1.75
COc1cncc(C(=O)N2CCOC[C@@]23CCOC3)n1 | 2 | -0.36
O=C(NC[C@H]1CCCN(C(=O)c2ccoc2)C1)c1cnc2ccccn2c1=O | -13 | 2.11
CCOCCCC(=O)NCc1nc(CC)c[nH]1 | -7 | 0.9
CN1CCN(C(=O)c2ccc(-c3cccnc3N)cc2)C[C@@H]1CCO | -11 | 2.1
Cc1cscc1NC(=O)NCc1nc(C(C)(C)C)cs1 | 0 | -0.01
COc1ccc(C(=O)N2CCn3cccc3[C@H]2c2cccs2)cc1 | 19 | -2.43
Cn1cc(CN2CCCc3c(Br)cccc3C2)nn1 | -8 | 1.24
CC1(C)COC[C@H](CS(N)(=O)=O)O1 | -9 | 1.44
COc1ccc(-n2nc(C)c3c(NCCNC(=O)CC(C)C)nc(C4CC4)nc32)cc1 | -5 | 0.78
O=C(COc1ccc(Cl)cc1)N[C@@H]1COCC[C@@H]1OCc1ccccn1 | -5 | 0.48
O=C(NCc1ccc2cc[nH]c2n1)N[C@H]1COc2ccc(Cl)cc21 | 11 | -1.1
Cn1c(C(=O)N2CCC2)cc2ccc(Cl)cc21 | -10 | 1.65
CCn1ccc(C(=O)N2CCC[C@H](CNC(=O)c3ccc(F)cc3C)C2)cc1=O | -6 | 1.25
CCN(Cc1nc(C)no1)C(=O)NCC1(N2CCOCC2)CCCCCC1 | 2 | -0.37
O=S(=O)(c1cc(F)ccc1N1CC[C@H](O)C1)C(F)(F)F | 5 | -0.52
O=C(Cc1cccs1)Nc1nnc(-c2ccccc2)o1 | -8 | 0.98
Cc1nc(CCNC(=O)c2ccc(-c3ccc4c(c3)OCCO4)s2)c(C)o1 | 17 | -1.89

SMILES | % Inhibition [%] | Z score
O=C(O)COc1cccc(C(=O)N[C@@H]2c3ccccc3CC23CCOCC3)c1 | -1 | 0.29
CCCN(CC(=O)N1CCc2sccc2[C@@H]1COc1ccccc1)C(=O)c1cccc(C)c1 | 0 | -0.03
CO[C@@H](C)C(=O)NCCc1nc(-c2ccccc2)c(C)s1 | 0 | 0
Cc1cc(S(=O)(=O)N2CC(Nc3ccncn3)C2)ccc1F | -5 | 1.06
CCC(C)c1nnc2n1CCC(C(=O)OC)C2 (configuration not stated) | -10 | 2.03
Cc1nc(CCCNC(=O)Nc2cccnc2O)sc1C | -15 | 1.86
CCCOCC(=O)N1CCC(n2c(=O)[nH]c3cccnc32)CC1 | 3 | -0.34
COc1ccc(Cl)cc1[C@@H](O)CNc1nccs1 | -7 | 1.28
Cc1ccc(C#N)c(N2CCN(CC(C)C)C(=O)C2)n1 | 1 | -0.09
C[C@@H](c1cnn(C)c1)c1nc(C2(C(F)(F)F)CCC2)no1 | -2 | 0.34
C[C@]1(C(N)=O)CCN(c2nnc(-c3cccc(Cl)c3)n2Cc2ccccc2)C1 | -3 | 0.53
O=C(c1nc2ccccc2s1)N1CC(n2ccnn2)C1 | -20 | 2.24
CN(CC(=O)NCCc1nc(-c2cccnc2)n[nH]1)Cc1ccccn1 | -10 | 0.97
CC(C)C1CC(c2csc(N)n2)CCO1 (configuration not stated) | -2 | 0.34
CCc1ccc(-n2nc(C)c3c(C)cc(OCC(=O)NC4CCCCC4)nc32)cc1 | -16 | 1.8
COC1CCC(N(C)S(=O)(=O)c2ccc(C)c(N(C)C)c2)CC1 (configuration not stated) | 1 | -0.08
Nc1ccc(-c2nnc(-c3ccc(-c4ccccc4)cc3)o2)cc1 | -18 | 3.44
Cc1cccc(N(CCC#N)C(=O)c2cc3ccccc3c(=O)[nH]2)c1 | -18 | 1.68
CCOc1ccc(CN2C(=O)C(C)C(C)C2=O)nc1 (configuration not stated) | -10 | 1.45
COc1cccc(CN2CCC3(CC[C@@H]3O)CC2)n1 | -13 | 1.61
Cc1ccccc1CS(=O)(=O)N1CCC(C(=O)N2CCN(c3cccc(C)c3C)CC2)CC1 | -6 | 1.02
COCC(=O)N[C@@H]1CN(C(=O)Cc2cc3ccccc3o2)C[C@H]1c1ccnn1C | -2 | 0.24

SMILES | % Inhibition [%] | Z score
CN(Cc1cnccn1)C1CC2CCC1C2 (configuration not stated) | -8 | 0.9
O=C(NCc1ccnc(N2CCCC2=O)c1)[C@H]1CCOC1 | -13 | 2
N#Cc1cccc([C@@H](C#CC2(O)CCCC2)N2CCC(C(N)=O)CC2)c1 | -5 | 1.05
O=C(c1cccc2ccccc12)N1CC(COc2ccc3c(c2)OCO3)C1 | 5 | -0.77
CN1CCC(N2CCN(C/C=C/c3ccc(F)cc3)C[C@@H]2CCO)CC1 | -5 | 0.58
O=C1CC[C@@]2(CCCO2)CCN1Cc1ccc(F)cc1 | -13 | 1.69
O=C(C#Cc1ccccc1)NCc1ccn2ccnc2c1 | -7 | 0.73
O=C(c1ccc(N2CCOCC2)nn1)N1CCN(c2ncccn2)CC1 | -19 | 3.24
COCc1nccc(N(Cc2ccccn2)Cc2ccccc2C)n1 | 2 | -0.3
CC[C@H](O)CCNC(=O)c1cc(F)c(Cl)cc1F | 19 | -2.36
Cc1ncccc1CN1CCC(C(=O)N2CC(C)OC(C)C2)CC1 (configuration not stated) | -12 | 1.51
CCCCNc1ccccc1C(=O)N1CCC2(CCO2)CC1 | 4 | -0.53
COc1ccc(OC)c(-c2c([C@@H]3c4ccccc4C(=O)N3Cc3ccco3)c3ccccc3n2C)c1 | -8 | 1.19
CCCCn1cnc2c(-c3ccccc3)cn(Cc3ccc(F)cc3)c2c1=O | -11 | 1.09
N#Cc1oc2ccccc2c1NC(=O)CN1CCCCCC1 | -8 | 1.5
COc1ccc(O)c(C(=O)N2CCC3(CC2)c2nc[nH]c2CCN3C(C)=O)c1 | -5 | 0.79
CCCc1nc(CNS(=O)(=O)c2ccc(-c3c(C)noc3C)s2)cs1 | -25 | 2.56
Cc1nn(-c2ncnc3[nH]cnc23)c2c1[C@@H](c1ccc(C#N)cc1)CC(=O)N2 | 5 | -0.63
CN(C)c1ncc(CN[C@H]2[C@H](c3ccccc3)C2(C)C)cn1 | 10 | -1.13
CC(C)n1nccc1NC(=O)c1c[nH]c2ccc(F)cc2c1=O | 37 | -4.19
Cc1nnsc1CN1C[C@@](C)(c2ccccc2)CCC1=O | -16 | 1.61
O=C(NCC(O)c1ccc(-c2ccco2)cc1)C1CCOC1 (configuration not stated) | 19 | -2.58

SMILES | % Inhibition [%] | Z score
Cc1ccsc1CN(Cc1c[nH]cn1)CC(C)C | -6 | 1.03
CCOC1CC(NCc2csc(N(C(C)=O)C3CC3)n2)C12CCC2 (configuration not stated) | 9 | -1.42
CC(c1ccccc1)C(CNC(=O)N1CCOCC1)NC(=O)N1CCOCC1 (configuration not stated) | -5 | 0.65
NS(=O)(=O)c1ccc(-n2ccnc2-c2cccc3nonc23)cc1 | -2 | 0.27
CN(C)c1noc(CN(Cc2ccc(Cl)cc2)C2CC2)n1 | -14 | 1.64
Cc1cc(C)cc(-c2cn(CCc3n[nH]c(=O)[nH]3)nn2)c1 | -5 | 1.02
COc1cccc(NC(=O)Nc2ccc(OCc3ccccc3)cc2)c1 | 0 | -0.05
Cc1cc(C)nc(NC(=O)N(Cc2ccncc2)C2CC2)c1 | -6 | 0.5
O=c1c2cccn2ncn1Cc1ccc2c(c1)CCC2 | -5 | 0.55
CS(=O)(=O)N1CCC[C@@]2(C1)OC(=O)c1ccccc12 | -9 | 1.66
O=C(N[C@H]1CC(=O)N(c2ccccc2)C1)C1CCN(Cc2ccco2)CC1 | -9 | 1.64
O=C(CCCCC(=O)n1cnc2ccccc21)n1cnc2ccccc21 | 28 | -3.13
CCn1nc(C)cc1C(=O)Nc1n[nH]c(C)n1 | -5 | 0.54
O=C(c1ccccc1)N1CCCc2cc(S(=O)(=O)N3CCCC3)ccc21 | -7 | 0.91
Cc1nc(-c2c[nH]c(=O)c(Cl)c2)n(-c2ccc(S(N)(=O)=O)cc2)n1 | -9 | 1.09
O=c1ccn(-c2ccc(F)c(F)c2)nc1-c1nc(-c2ccc(F)c(Cl)c2)no1 | 7 | -1.07
COc1ccc(-c2cc(N3CCN(C(=O)CCn4ccc(=O)[nH]c4=O)CC3)ncn2)cc1 | -13 | 2.5
CN1CCN(c2nccn3nnnc23)C[C@@H]1CO | -16 | 1.61
Cc1ccc(C#N)c(N2CCC(N3CCC[C@H](C(=O)N4CCCC4)C3)CC2)n1 | 8 | -1.05
Cc1ccsc1CN(CCc1c[nH]c2ccccc12)Cc1nc(C(=O)NCc2ccccc2)co1 | -3 | 0.24
